In the supplement of paper PMC10126150:
Sequences with one replicate were seen in a single cluster, so their values are uncertain.

Test system: ATP
Assay: switch fluorescence ratio, 500 uM ATP over buffer (Cy3 cluster intensity, sum of 5 cycles each) (fold (ratio)); higher = stronger signal-on switching upon ATP binding; sequences stand for … in TCGTCGGCAGCGTCAGATGTGTATAAGAGACAGTTTTTTTTTTTTTTTTTTTTTTTTT…TC
Conditions: aptamer strand: ATP DNA aptamer (quencher-CACCTGGGGGAGTATTGCGGAGGAAGG + anchor), 100 nM annealed; ATP concentration: 500 uM; one replicate
In short: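 Clusters carrying Cy3-labelled switching strands on a modified Illumina MiSeq flow-cell were annealed to 100 nM quencher-labelled ATP aptamer and imaged in selection buffer. They were imaged again after 15 min with 500 uM ATP at 22 °C, over five buffer/ATP cycles with NaOH stripping and re-annealing in between. For each cluster, the fluorescence ratio is the summed Cy3 intensity of the target cycles divided by that of the buffer cycles, averaged per switch-domain sequence. Clusters outside 100-1000 RFU were left out.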
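Also: ATP exposure 15 min at 22 °C before imaging.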

TCTGTTCGG was tested, and the switch fluorescence ratio was 0.963.
AAATCGAGGC was tested, and the switch fluorescence ratio was 0.945.
TTTGTCAGGA gave a switch fluorescence ratio of 0.978.
For GGCGTGAAAA, the switch fluorescence ratio was 0.971.
For CCCTTTCGTA, the switch fluorescence ratio was 0.998.
For TCGGCTTCGG, the switch fluorescence ratio was 1.03.
In the case of TTGACTGTAC, the switch fluorescence ratio is reported as 1.65.
Sequence TAAGAATACG has a switch fluorescence ratio of 1.01.
ACGATTTCCT was tested, and the switch fluorescence ratio was 1.04.
CTGACACTAA gave a switch fluorescence ratio of 1.18.
ATCGGTAT gave a switch fluorescence ratio of 1.02.
With CATACGGGAA the switch fluorescence ratio was 1.23.
Work on TGCATGCTGT yielded a switch fluorescence ratio of 0.983.
Work on TGCATCGTTG yielded a switch fluorescence ratio of 0.972.
With GCAGAACTTC the switch fluorescence ratio was 1.02.
For GTATGGTGCG, the switch fluorescence ratio was 0.923.
TAGCTTGTAG showed a switch fluorescence ratio of 1.07.
AGAAAAAGAC gave a switch fluorescence ratio of 0.978.
TGGACCGAGT showed a switch fluorescence ratio of 0.986.
In the case of GAACATGAGA, the switch fluorescence ratio is reported as 1.02.
CAACGCCTTA showed a switch fluorescence ratio of 1.
Sequence AAAGCGAAGA has a switch fluorescence ratio of 0.983.
Sequence GCAAAACGTT has a switch fluorescence ratio of 1.63.
Work on ATGCGAGCGC yielded a switch fluorescence ratio of 0.994.
CAGCTAACCT gave a switch fluorescence ratio of 1.8.
Sequence AGGATTTTGT has a switch fluorescence ratio of 0.988.
For CGGAGTTCCC, the switch fluorescence ratio was 1.02.
Sequence CGTAGCCTGT has a switch fluorescence ratio of 0.979.
Work on TGGAAGAAAG yielded a switch fluorescence ratio of 1.01.
In the case of TTCGCTTTCT, the switch fluorescence ratio is reported as 1.87.
AAGACTCGTT showed a switch fluorescence ratio of 1.01.
ATGCGTGGG was tested, and the switch fluorescence ratio was 1.01.
Work on GGCTTTCAAG yielded a switch fluorescence ratio of 0.953.
With CAAGTATGTT the switch fluorescence ratio was 0.982.
For CAATATCTCG, the switch fluorescence ratio was 1.09.
TCCTGAGCCG was tested, and the switch fluorescence ratio was 0.989.
TGCATAAGGG was tested, and the switch fluorescence ratio was 1.01.
AGAGGAGA gave a switch fluorescence ratio of 1.02.
With CACTTAGAA the switch fluorescence ratio was 1.01.
Sequence CTTATATTGA has a switch fluorescence ratio of 1.
In the case of AAGGTACGGT, the switch fluorescence ratio is reported as 1.04.
GTAATCGCAC gave a switch fluorescence ratio of 1.17.
For AGGTTTACCG, the switch fluorescence ratio was 0.924.
Sequence GCTGGTGGCG has a switch fluorescence ratio of 0.999.
Work on CAAGTTCGCA yielded a switch fluorescence ratio of 1.09.
In the case of AATGATACGT, the switch fluorescence ratio is reported as 1.01.
For AGCACCAGTA, the switch fluorescence ratio was 1.
TACAGAAGCC gave a switch fluorescence ratio of 1.05.
CCTTCTCTTT gave a switch fluorescence ratio of 1.24.
CCGTGTATAG showed a switch fluorescence ratio of 1.73.
TATTCGTCCT was tested, and the switch fluorescence ratio was 1.02.
CAAGTGAGGT showed a switch fluorescence ratio of 1.02.
TAGTCAGACA was tested, and the switch fluorescence ratio was 0.959.
Work on CACCATCAAA yielded a switch fluorescence ratio of 1.
Work on GCGGACGGTT yielded a switch fluorescence ratio of 1.02.
Sequence CGCCGCTTGT has a switch fluorescence ratio of 1.67.
With CCATGACGCA the switch fluorescence ratio was 2.1.
In the case of CAAAGGATC, the switch fluorescence ratio is reported as 1.01.
Work on CGTATTGTT yielded a switch fluorescence ratio of 0.981.
AGCCGATCTG was tested, and the switch fluorescence ratio was 0.973.
In the case of GGTTGATCGA, the switch fluorescence ratio is reported as 1.02.
GTGCGCCGCT showed a switch fluorescence ratio of 1.07.
With CATCGAGCAT the switch fluorescence ratio was 1.7.
Sequence CTTTCGGTTC has a switch fluorescence ratio of 1.01.
For TCGCTGCCTC, the switch fluorescence ratio was 1.04.
ATCAGTATGG gave a switch fluorescence ratio of 0.981.
AGTGAATCGT showed a switch fluorescence ratio of 0.968.
Work on GGGAGCTATG yielded a switch fluorescence ratio of 0.929.
GCTAACGGGA showed a switch fluorescence ratio of 1.03.
CGACGCCCGT was tested, and the switch fluorescence ratio was 1.29.
ATGGATTCTC showed a switch fluorescence ratio of 1.01.
TTTTACTAGC showed a switch fluorescence ratio of 1.04.
TTCGGATGAT gave a switch fluorescence ratio of 0.993.
Work on ACGTGTCCCC yielded a switch fluorescence ratio of 1.05.
ACACTTACG showed a switch fluorescence ratio of 1.57.
For CACAGAAATA, the switch fluorescence ratio was 1.04.
TCGCAGACCT was tested, and the switch fluorescence ratio was 1.28.
Sequence TATTTGTGTA has a switch fluorescence ratio of 0.959.
GAGGGATTG gave a switch fluorescence ratio of 0.943.
In the case of TACGACGTAG, the switch fluorescence ratio is reported as 0.96.
For GTGTCTAAAA, the switch fluorescence ratio was 0.985.
Sequence ACCAGTAGGG has a switch fluorescence ratio of 0.967.
Work on TTTTTCCGAT yielded a switch fluorescence ratio of 1.02.
TTTGGGAACG showed a switch fluorescence ratio of 0.98.
Work on TCTAGTCTGT yielded a switch fluorescence ratio of 1.01.
For CCAAAATAAG, the switch fluorescence ratio was 0.98.
CTGCTAACGT was tested, and the switch fluorescence ratio was 1.01.
With TCGTTCGGCC the switch fluorescence ratio was 1.01.
In the case of GACAGTGGCA, the switch fluorescence ratio is reported as 0.97.
With GACGTCTACT the switch fluorescence ratio was 1.04.
With CATATATAGC the switch fluorescence ratio was 0.981.
GACCGAATGA was tested, and the switch fluorescence ratio was 0.984.
With GAAGTTTTA the switch fluorescence ratio was 1.04.
AAGCAACTTG showed a switch fluorescence ratio of 1.06.
Work on AGCATGAGAA yielded a switch fluorescence ratio of 1.04.
For CGCGGGGATG, the switch fluorescence ratio was 1.01.
With CGATTTACGA the switch fluorescence ratio was 1.08.
GCGCTACTTC gave a switch fluorescence ratio of 1.55.
With GACGCGGAAA the switch fluorescence ratio was 1.62.
CAACAGTAGG gave a switch fluorescence ratio of 0.995.
ATGTGAACCC was tested, and the switch fluorescence ratio was 1.05.
With AATTACAGCG the switch fluorescence ratio was 1.
Sequence GCTAATGTCG has a switch fluorescence ratio of 1.13.
Sequence CTGTTCTCTG has a switch fluorescence ratio of 0.996.
CCCGCGGGTG was tested, and the switch fluorescence ratio was 3.55.
GCGGTCAAGT gave a switch fluorescence ratio of 0.972.
In the case of AAATATCGT, the switch fluorescence ratio is reported as 0.968.
AGCCGCCTG gave a switch fluorescence ratio of 1.
Work on CCATTGTCAC yielded a switch fluorescence ratio of 1.05.
With TAGTGAGTTT the switch fluorescence ratio was 1.02.
Sequence ACCCCCTTCC has a switch fluorescence ratio of 2.96.
GCCTGGAG showed a switch fluorescence ratio of 0.999.
For TGGCCTCCTA, the switch fluorescence ratio was 1.
TCTGAGCTGG was tested, and the switch fluorescence ratio was 1.09.
Work on TCTGAAACGT yielded a switch fluorescence ratio of 1.07.
Sequence TAGGCCCGTC has a switch fluorescence ratio of 1.02.
Sequence TTTTCTTGC has a switch fluorescence ratio of 0.998.
For TGAACGGCTC, the switch fluorescence ratio was 1.03.
CCTAAGTTGC gave a switch fluorescence ratio of 1.16.
In the case of GTGCAAGTTT, the switch fluorescence ratio is reported as 1.03.
For GCAGTATGTA, the switch fluorescence ratio was 1.01.
In the case of TGTGAGTCCG, the switch fluorescence ratio is reported as 1.03.
Work on TACGAGATTG yielded a switch fluorescence ratio of 1.06.
For TTTCTATTGA, the switch fluorescence ratio was 1.02.
In the case of CGTTCGTGAC, the switch fluorescence ratio is reported as 1.38.
For TACAGGACAA, the switch fluorescence ratio was 1.1.
In the case of CAAGACGACT, the switch fluorescence ratio is reported as 1.08.
With CGCCCCGACG the switch fluorescence ratio was 1.42.
Work on GCAGAAGTA yielded a switch fluorescence ratio of 1.01.
TAATTTGCTT gave a switch fluorescence ratio of 0.982.
In the case of TCAATCATGG, the switch fluorescence ratio is reported as 0.93.
AGTTGGCTC was tested, and the switch fluorescence ratio was 1.
For TAAATATCT, the switch fluorescence ratio was 1.02.
CTGATCTTCT was tested, and the switch fluorescence ratio was 1.
Work on AATTAGTTTT yielded a switch fluorescence ratio of 0.951.
For GACACCGACT, the switch fluorescence ratio was 1.09.
In the case of GGGAGCGGCT, the switch fluorescence ratio is reported as 0.961.
Sequence ATTTTACCGA has a switch fluorescence ratio of 1.05.
Sequence CGAATATGT has a switch fluorescence ratio of 0.989.
CGACCCCCT showed a switch fluorescence ratio of 1.67.
TATTAGGATG was tested, and the switch fluorescence ratio was 1.01.
For CGTATAATGA, the switch fluorescence ratio was 1.01.
With TGAGGGTACT the switch fluorescence ratio was 1.01.
GCTCTGAACC was tested, and the switch fluorescence ratio was 1.1.
Work on TGTGGGAGTC yielded a switch fluorescence ratio of 0.997.
ATTACCATGG gave a switch fluorescence ratio of 1.08.
Work on TGTGGTTATC yielded a switch fluorescence ratio of 1.
TGACTACCGG was tested, and the switch fluorescence ratio was 1.02.
For TTGGTTAACG, the switch fluorescence ratio was 0.962.
TAACTCCACT showed a switch fluorescence ratio of 1.23.
In the case of CGATGCAGTG, the switch fluorescence ratio is reported as 1.16.
Sequence GGTGGAGGCG has a switch fluorescence ratio of 1.05.
CCTGATAATA was tested, and the switch fluorescence ratio was 1.03.
ATACCTTCA showed a switch fluorescence ratio of 2.56.
AGGGGGGCA was tested, and the switch fluorescence ratio was 0.999.
Work on TCTGGATCGA yielded a switch fluorescence ratio of 0.972.
With TTACGGAGA the switch fluorescence ratio was 1.1.
AGGGCGTCCC was tested, and the switch fluorescence ratio was 1.01.
With TCCAGGGCGC the switch fluorescence ratio was 1.1.
With AGTGACCTTC the switch fluorescence ratio was 1.41.
GGTTGAGAGG was tested, and the switch fluorescence ratio was 1.01.
With CATCGGCGCT the switch fluorescence ratio was 1.05.
In the case of AAGCTATGTC, the switch fluorescence ratio is reported as 1.06.
In the case of TGGAGGTGTA, the switch fluorescence ratio is reported as 0.987.
TACGGAGCAT was tested, and the switch fluorescence ratio was 6.05.
Sequence ATTTTAATA has a switch fluorescence ratio of 1.01.
With ATACGGAGTC the switch fluorescence ratio was 0.953.
For GAATTTACCA, the switch fluorescence ratio was 1.08.
For TTCGCCCCGT, the switch fluorescence ratio was 0.965.
Sequence ACTATACAGT has a switch fluorescence ratio of 1.21.
CGGGACGTTA gave a switch fluorescence ratio of 0.941.
TTGCGCTCTT showed a switch fluorescence ratio of 0.977.
For CAACAGTCCT, the switch fluorescence ratio was 1.06.
AGTTCCAG was tested, and the switch fluorescence ratio was 1.02.
With CCTAACGATT the switch fluorescence ratio was 1.
Work on TCAGAGCGGT yielded a switch fluorescence ratio of 1.02.
TATATTATCA was tested, and the switch fluorescence ratio was 0.969.
For TACCCCATTC, the switch fluorescence ratio was 1.37.
With GCCGTCATTT the switch fluorescence ratio was 1.01.
With GGCTCACAGA the switch fluorescence ratio was 0.963.
Sequence CGGCATTACC has a switch fluorescence ratio of 2.63.
AATTTGAGAT showed a switch fluorescence ratio of 0.987.
Sequence CTTGGTACAC has a switch fluorescence ratio of 1.02.
Sequence CGTTGTGCAG has a switch fluorescence ratio of 0.958.
In the case of GGCGAATGAG, the switch fluorescence ratio is reported as 0.983.
ATATAGGGAG was tested, and the switch fluorescence ratio was 1.02.
With GGATTGCGGA the switch fluorescence ratio was 0.975.
With AGTTGTCTTT the switch fluorescence ratio was 0.882.
Sequence ATGTAATCTC has a switch fluorescence ratio of 1.03.
With GAGCAAGGCC the switch fluorescence ratio was 1.
TATCTTTCCG was tested, and the switch fluorescence ratio was 1.
In the case of AATACCTCAC, the switch fluorescence ratio is reported as 1.64.
CAGAGATATG gave a switch fluorescence ratio of 1.06.
TGATTGTAGC gave a switch fluorescence ratio of 1.
Sequence AACTTTTGAA has a switch fluorescence ratio of 0.996.
For CCCATAGGGG, the switch fluorescence ratio was 1.06.
Work on CTAAACAAAA yielded a switch fluorescence ratio of 1.04.
Work on TAATGCCTTC yielded a switch fluorescence ratio of 1.1.
For TGCGGAAA, the switch fluorescence ratio was 1.03.
Sequence TCATATGCCT has a switch fluorescence ratio of 0.997.
For TGGACTTGAG, the switch fluorescence ratio was 0.982.
